This note sets out measurements from PubChem BioAssay AID1963576 (National Center for Advancing Translational Sciences (NCATS), 2024).

The campaign covered roughly 46,000 compounds. About 60 (0.1%) were called active. Roughly 3% stayed inconclusive and do not appear here. The call rests on the fitted dose curve; in most records, active means well fitted inhibition curve with a large enough effect; inconclusive means small, poorly fitted or top-dose-only effect; inactive means no such curve, though single readings can be large or run the other way. This is one part of the list.

This experiment in a line: Primary qHTS assay for Inhibitors of ovarian cancer metastasis using an organotypic tumor microenvironment (TME) model. Further: nearly all actives have a fitted effect of over 65% in size.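 On activity change, negative = inhibition: plate controls were DMSO wells for no effect and tomatine positive control wells for full effect.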 As to conditions: SKOV3ip1-GFP adhesion/invasion on 3D omental model, fluorescence; series mostly up to 45.8 µM; activity change, negative = inhibition: at the top concentration. In a few lines:
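Adhesion/invasion was scored as fixed GFP-labeled SKOV3ip1 cell counts (488/509 nm), normalized to DMSO and tomatine controls. Cancer cells in serum-free medium, with four compound doses (0.36-46 umol/L), sat 2 hr at RT then 16 hr at 37 C on a 48 hr fibroblast/mesothelial/ECM culture.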
On to `Cc1cc(S(=O)(=O)NCC(c2ccc(N(C)C)cc2)N2CCOCC2)ccc1F` (configuration not stated), for which the molecule was called inactive.

Consider `CCN(CC)c1ccc(NC(=O)c2cc3c(=O)n4cccc(C)c4nc3n2C)c(C)c1`, for which the “activity change, negative = inhibition” value is inactive: -8.65%. On to `CN(C)S(=O)(=O)c1ccc2c(c1)C(=Cc1cc3c([nH]1)CCCC3)C(=O)N2`, for which the “activity change, negative = inhibition” value was inactive: 25.9%. Consider `Cc1[nH]c(=O)[nH]c(=O)c1S(=O)(=O)N1CCN(c2cccc(Cl)c2)CC1`, for which the “activity change, negative = inhibition” value was inactive: -3.49%. `Cc1ccc(CN(C(=O)COc2ccc(Cl)cc2Cl)C2CCS(=O)(=O)C2)o1` (configuration not stated): the call was inactive.

Regarding `COc1ccc(/C=C/c2nc3ccccc3c(=O)n2-c2cccc(C(F)(F)F)c2)cc1`, the “activity change, negative = inhibition” value was inactive: -3.4%.

As for `CCN(c1ccccc1)S(=O)(=O)c1ccc2[nH]cc(C(=O)NCc3ccc(C)cc3)c(=O)c2c1`, the “activity change, negative = inhibition” value was inactive: -6.72%. On to `N#Cc1c(Nc2cccc(F)c2)sc(C(=O)c2ccc(Cl)cc2)c1N`, for which the “activity change, negative = inhibition” value is inactive: 3.49%.

As to `O=C(Nc1cccc(C(F)(F)F)c1)Nc1nnc(N2CCCCC2)s1`, the “activity change, negative = inhibition” value was inactive: 1.62%. For `COc1ccc(S(=O)(=O)Nc2cccc(-c3ccc(N4CCCC4)nn3)c2)cc1OC`, the “activity change, negative = inhibition” value is inactive: -0.664%. Turning to `CCCNC(=O)Cn1nc(-c2ccc(C)c(C)c2)c2cnc3ccc(F)cc3c21`, the “activity change, negative = inhibition” value was inactive: 2.3%. Turning to `Cc1ccc(C)c(CN2C(=O)CSc3ccc(C(=O)NCCc4ccc(Cl)cc4)cc32)c1`, the “activity change, negative = inhibition” value was inactive: 9.65%.

As to `Clc1ccc(CNc2cc(-c3ccccc3)nc3nncn23)cc1`, the call was inactive. In the case of `Cc1ccc(OCC(=O)Nc2ccc3nc(Nc4cccc(Cl)c4)cc(C)c3c2)cc1`, the “activity change, negative = inhibition” value was inactive: 11.2%.

With `COc1ccccc1CNC(=O)CN1C(=O)CCn2nc(-c3ccccc3)cc21`, the “activity change, negative = inhibition” value is inactive: 1.93%. With `COc1ccc(-c2nc3sc(CCNS(=O)(=O)c4ccc(F)c(C)c4)c(C)n3n2)cc1`, the molecule was classed as inactive.

As for `COc1ccc(N2CC(NC(=O)c3ccc(OC(C)C)cc3)CC2=O)cc1` (configuration not stated), the “activity change, negative = inhibition” value was inactive: -1.12%. In the case of `Cc1c(-c2ccc(Cl)cc2)c(=O)oc2c(CN3CCCC3)c(O)ccc12`, the molecule was called inactive. Regarding `O=C(c1ccccc1)n1nc(-c2ccco2)nc1NCc1ccccc1Cl`, the “activity change, negative = inhibition” value is inactive: -1.39%. Consider `Cc1noc(C)c1S(=O)(=O)N1CCCC(C(=O)Nc2ccc(C(C)C)cc2)C1` (configuration not stated), for which the molecule was classed as inactive. For the molecule `COc1ccc(N(C(=O)COc2ccccc2OC)S(=O)(=O)c2ccc(Cl)cc2)cc1`, the “activity change, negative = inhibition” value is inactive: -8.46%. With `CO[C@H]1C=CO[C@@]2(C)Oc3c(C)c(O)c4c(O)c(c(C=NN5CCN(C)CC5)c(O)c4c3C2=O)NC(=O)C(C)=CC=C[C@H](C)[C@H](O)[C@@H](C)[C@@H](O)[C@@H](C)[C@H](OC(C)=O)[C@H]1C`, the “activity change, negative = inhibition” value was inactive: -5.82% [at 15.1 µM].

With `CCOc1ccc(CNC(=O)C2CCN(c3nn4c(=O)cc(C)nc4s3)CC2)cc1`, the molecule was called inactive.

For `CCOCCCNC(=O)c1cc2c(=O)[nH]c3ccccc3c2n1C`, the call was inactive. In the case of `COc1cccc(-n2cc(C(=O)Nc3cc(C)c(Cl)cc3OC)c3ccccc3c2=O)c1`, the “activity change, negative = inhibition” value is inactive: -7.38%. Consider `CCOc1ccc(CCNC(=O)C2CCC(CNS(=O)(=O)c3ccc(Cl)cc3)CC2)cc1OCC` (configuration not stated), for which the “activity change, negative = inhibition” value is inactive: -24.6%. Regarding `CCOc1ccc2nc(N3CCCC(C(=O)NCc4ccccc4OC)C3)sc2c1` (configuration not stated), the “activity change, negative = inhibition” value was inactive: -0.661%.

Turning to `CCCn1c2ccccc2c2cnn(CC(=O)NCCc3ccc(C)cc3)c(=O)c21`, the “activity change, negative = inhibition” value is inactive: -30%. As for `Cc1ccc(Cl)cc1NC(=O)C1CCN(c2nc3ccccc3n3cccc23)CC1`, the call was inactive.

For the molecule `COc1ccc(-c2noc(CSc3nc(N)cc(=O)[nH]3)n2)cc1OC`, the molecule was called inactive. As to `CCOC(=O)c1ccc(NC(=O)c2nc(SCc3ccccc3F)ncc2Cl)cc1`, the “activity change, negative = inhibition” value is inactive: -2.92%. In the case of `O=C(NC1CC(=O)N(c2ccc(Cl)cc2)C1)c1ccc(S(=O)(=O)N2CCOCC2)cc1` (configuration not stated), the “activity change, negative = inhibition” value is inactive: -13.7%. `COc1ccc(-c2noc(CN(C(=O)c3cc(OC)c(OC)cc3OC)C(C)C)n2)cc1`: the “activity change, negative = inhibition” value was inactive: -20.6%.

As to `COc1cc(C2C(C(=O)Nc3ccccc3)=C(C)Nc3nnnn32)cc(OC)c1OC` (configuration not stated), the call was inactive. As for `CCCCOC(=O)c1ccc(Nc2nnc(-n3nc(C)cc3C)c3ccccc23)cc1`, the “activity change, negative = inhibition” value is inactive: -7.31%. For the molecule `Cc1cc(C)c2oc(C(=O)Nc3ccc(S(=O)(=O)Nc4nccc(C)n4)cc3)cc(=O)c2c1`, the “activity change, negative = inhibition” value was inactive: -2.22%. The same measure, in the same setting: then `COc1ccc(Nc2oc(/C=C/c3ccc(OC)c(OC)c3)nc2C#N)cc1`, with inactive: -2.16%.

For `COCCn1c(=O)[nH]c2cc(C(=O)Nc3cccc(C(C)=O)c3)ccc2c1=O`, the outcome was inactive. `Cc1ccc(CN2CCCn3nc(C(=O)NCC(C)c4ccccc4)cc3C2=O)cc1` (configuration not stated): the “activity change, negative = inhibition” value is inactive: 13.3%. Consider `CCc1nn(CC(=O)NCCCOC)c(=O)c2cc3ccccc3n12`, for which the “activity change, negative = inhibition” value was inactive: -24.3%. As to `Cc1ccc(/C=C/c2onc(C)c2S(=O)(=O)N2CCC(C(=O)Nc3cc(F)ccc3F)CC2)cc1`, the “activity change, negative = inhibition” value was inactive: 14.4%.

Turning to `CCOc1ccc(S(=O)(=O)Nc2cc(Cl)ccc2OC)c2cccnc12`, the outcome was inactive. As for `Cc1nc(C(=O)NCC(=O)O)c(O)c2ccc(Oc3ccccc3)cc12`, the “activity change, negative = inhibition” value is inactive: 4.25%.

In the case of `O=c1oc2ccccc2cc1-c1cn2cc(Cc3ccc(Br)cc3)sc2n1`, the call was inactive. For `O=c1c2sc3ccccc3c2n(Cc2cccc(C(F)(F)F)c2)c(=O)n1Cc1ccc(F)cc1`, the “activity change, negative = inhibition” value is inactive: 32.6%. Regarding `Cc1cccc(C)c1Nc1c(-c2ccc(O)cc2)nc2sccn12`, the “activity change, negative = inhibition” value is inactive: -5.33%. As for `COc1ccc2oc(-c3cccc(NC(=O)c4sc5c([N+](=O)[O-])cccc5c4Cl)c3)nc2c1`, the “activity change, negative = inhibition” value is inactive: -6.11%.
